Assay results taken from the supplement of paper PMC12067230.
This is a noisy data set.
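Further: [psi-pin-] Saccharomyces cerevisiae expressing SupN fusions, induced by 100 µM Cu2SO4, selected 7 d at 30 °C without adenine and uracil, scored by deep sequencing of output versus input.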

Test: amyloid nucleation score relative to library mode (yeast Sup35 reporter selection) (log enrichment difference); higher = more amyloid nucleation; sequences are the first 22 residues of the Bri2 peptide extended by up to 12 random residues
Details: random library (experiment): 1;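 active = nucleation score significantly above 0 at FDR 0.05; inactive = not significantly above 0 or absent from output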
In the case of EASNCFAIRHFENKFAVETLICGYKHCALPSCGT, the amyloid nucleation score was “inactive”.
For EASNCFAIRHFENKFAVETLICGYLHPWY, the amyloid nucleation score was “inactive”.
For EASNCFAIRHFENKFAVETLICGYLKNIVGILIW, the amyloid nucleation score was “inactive”.
In the case of EASNCFAIRHFENKFAVETLICGYLLNVTRVLIQ, the amyloid nucleation score was “inactive”.
With EASNCFAIRHFENKFAVETLICGYP the amyloid nucleation score was “inactive”.
Work on EASNCFAIRHFENKFAVETLICGYPASSRVAKM yielded an amyloid nucleation score of 1.41.
In the case of EASNCFAIRHFENKFAVETLICGYQWSLCYDSVI, the amyloid nucleation score was “inactive”.
EASNCFAIRHFENKFAVETLICGYR showed an amyloid nucleation score of 0.609.
With EASNCFAIRHFENKFAVETLICGYRMCPVMIIVW the amyloid nucleation score was “inactive”.
EASNCFAIRHFENKFAVETLICGYRSAVSLCVWR gave an amyloid nucleation score of 1.2.
For EASNCFAIRHFENKFAVETLICGYSAAG, the amyloid nucleation score was 0.664.
EASNCFAIRHFENKFAVETLICGYTSWQAVVRRT gave an amyloid nucleation score of 2.7.
With EASNCFAIRHFENKFAVETLICGYTVFYTKKFDE the amyloid nucleation score was 6.6.
In the case of EASNCFAIRHFENKFAVETLICGYVKSFSMVLWV, the amyloid nucleation score was “inactive”.
In the case of EASNCFAIRHFENKFAVETLICGYVMPNYWGDDG, the amyloid nucleation score was 4.8.
In the case of EASNCFAIRHFENKFAVETLICGYVRYCMLFEV, the amyloid nucleation score was “inactive”.
In the case of EASNCFAIRHFENKFAVETLICGYWAWRMFDKWS, the amyloid nucleation score was “inactive”.
For EASNCFAIRHFENKFAVETLICGYWVQQRYCSVL, the amyloid nucleation score was “inactive”.
With EASNCFAIRHFENKFAVETLICHA the amyloid nucleation score was “inactive”.
EASNCFAIRHFENKFAVETLICHACLCRDGKPKG showed an amyloid nucleation score of 8.15.
For EASNCFAIRHFENKFAVETLICHAHWVTASGLLG, the amyloid nucleation score was “inactive”.
For EASNCFAIRHFENKFAVETLICHAM, the amyloid nucleation score was “inactive”.
In the case of EASNCFAIRHFENKFAVETLICHAQRFWRSLRLS, the amyloid nucleation score was “inactive”.
EASNCFAIRHFENKFAVETLICHARKCVQRHVGG showed an amyloid nucleation score of -0.12.
For EASNCFAIRHFENKFAVETLICHARRGLNSWLGS, the amyloid nucleation score was “inactive”.
In the case of EASNCFAIRHFENKFAVETLICHASVQHVRMSIG, the amyloid nucleation score was “inactive”.
EASNCFAIRHFENKFAVETLICHAVASGAFVKGV gave an amyloid nucleation score of 3.17.
In the case of EASNCFAIRHFENKFAVETLICHAYLTVA, the amyloid nucleation score was “inactive”.
Sequence EASNCFAIRHFENKFAVETLICHCAGSGLRLGMS has an amyloid nucleation score of 5.71.
EASNCFAIRHFENKFAVETLICHCGETEPWVRAG gave an amyloid nucleation score of 3.99.
For EASNCFAIRHFENKFAVETLICHCKVMA, the amyloid nucleation score was “inactive”.
In the case of EASNCFAIRHFENKFAVETLICHCLGGE, the amyloid nucleation score was 7.63.
Work on EASNCFAIRHFENKFAVETLICHCQISAIRLSSV yielded an amyloid nucleation score of 4.56.
EASNCFAIRHFENKFAVETLICHCSFVLSQFVQD gave an amyloid nucleation score of 2.55.
With EASNCFAIRHFENKFAVETLICHCSWDLICGTAA the amyloid nucleation score was “inactive”.
EASNCFAIRHFENKFAVETLICHCTLF showed an amyloid nucleation score of 8.58.
For EASNCFAIRHFENKFAVETLICHCVCQYIVCALR, the amyloid nucleation score was “inactive”.
Sequence EASNCFAIRHFENKFAVETLICHCVECCVGTSS has an amyloid nucleation score of 5.81.
For EASNCFAIRHFENKFAVETLICHDDSVNMRCPSA, the amyloid nucleation score was “inactive”.
For EASNCFAIRHFENKFAVETLICHDGCTANVSSPR, the amyloid nucleation score was “inactive”.
With EASNCFAIRHFENKFAVETLICHDGEWPGLWDGD the amyloid nucleation score was 0.547.
For EASNCFAIRHFENKFAVETLICHDTGTRVGLTCG, the amyloid nucleation score was “inactive”.
In the case of EASNCFAIRHFENKFAVETLICHDVAR, the amyloid nucleation score was “inactive”.
With EASNCFAIRHFENKFAVETLICHDWGNL the amyloid nucleation score was “inactive”.
With EASNCFAIRHFENKFAVETLICHECSSVCVNSSL the amyloid nucleation score was 5.33.
With EASNCFAIRHFENKFAVETLICHEEHPVFEGRCH the amyloid nucleation score was “inactive”.
For EASNCFAIRHFENKFAVETLICHERNT, the amyloid nucleation score was “inactive”.
For EASNCFAIRHFENKFAVETLICHEVLLTRCMARL, the amyloid nucleation score was 4.04.
With EASNCFAIRHFENKFAVETLICHEVQCRAPVWEI the amyloid nucleation score was “inactive”.
Sequence EASNCFAIRHFENKFAVETLICHFCGARGPVAVL has an amyloid nucleation score of 0.

Same assay, conditions: random library (experiment): 2
In the case of EASNCFAIRHFENKFAVETLICGYNYHSNVTSTL, the amyloid nucleation score was “inactive”.
For EASNCFAIRHFENKFAVETLICGYPT, the amyloid nucleation score was 4.5.
EASNCFAIRHFENKFAVETLICGYSCKTTLMVVT gave an amyloid nucleation score of 0.494.
With EASNCFAIRHFENKFAVETLICGYSHSKMNKVKC the amyloid nucleation score was “inactive”.
With EASNCFAIRHFENKFAVETLICGYSNRKITERGG the amyloid nucleation score was “inactive”.
For EASNCFAIRHFENKFAVETLICGYSV, the amyloid nucleation score was “inactive”.
For EASNCFAIRHFENKFAVETLICGYSVKLQYCNAS, the amyloid nucleation score was “inactive”.
In the case of EASNCFAIRHFENKFAVETLICGYTFCCYVGPRS, the amyloid nucleation score was “inactive”.
With EASNCFAIRHFENKFAVETLICGYV the amyloid nucleation score was “inactive”.
In the case of EASNCFAIRHFENKFAVETLICGYVCFRCCGRMW, the amyloid nucleation score was “inactive”.
EASNCFAIRHFENKFAVETLICGYVDMFSIVLDR showed an amyloid nucleation score of 2.15.
Work on EASNCFAIRHFENKFAVETLICGYVMFYDNIRRR yielded an amyloid nucleation score of 2.95.
For EASNCFAIRHFENKFAVETLICGYVVIMLSLYVW, the amyloid nucleation score was “inactive”.
In the case of EASNCFAIRHFENKFAVETLICGYWGYEYGNGME, the amyloid nucleation score was “inactive”.
In the case of EASNCFAIRHFENKFAVETLICHAAYEIVWKYCV, the amyloid nucleation score was “inactive”.
In the case of EASNCFAIRHFENKFAVETLICHAFEIQSECGLR, the amyloid nucleation score was “inactive”.
Work on EASNCFAIRHFENKFAVETLICHAKFMWNCDLTK yielded an amyloid nucleation score of 2.78.
In the case of EASNCFAIRHFENKFAVETLICHARFFGREIVYY, the amyloid nucleation score was “inactive”.
For EASNCFAIRHFENKFAVETLICHASRTFWLIEIW, the amyloid nucleation score was “inactive”.
Sequence EASNCFAIRHFENKFAVETLICHAYHQVSFYGTD has an amyloid nucleation score of 4.71.
With EASNCFAIRHFENKFAVETLICHAYLGYMCAYAA the amyloid nucleation score was “inactive”.
For EASNCFAIRHFENKFAVETLICHCEV, the amyloid nucleation score was “inactive”.
For EASNCFAIRHFENKFAVETLICHCFMDAGNGVAM, the amyloid nucleation score was 8.96.
EASNCFAIRHFENKFAVETLICHCLIWCSNRWFI gave an amyloid nucleation score of 0.644.
Sequence EASNCFAIRHFENKFAVETLICHCMLVHVTRTIW has an amyloid nucleation score of 1.41.
Sequence EASNCFAIRHFENKFAVETLICHCMSFSVSRYYP has an amyloid nucleation score of 6.48.
For EASNCFAIRHFENKFAVETLICHCS, the amyloid nucleation score was “inactive”.
Work on EASNCFAIRHFENKFAVETLICHCYSSDSESLGK yielded an amyloid nucleation score of 6.72.
With EASNCFAIRHFENKFAVETLICHDASFRVIRIGS the amyloid nucleation score was “inactive”.
EASNCFAIRHFENKFAVETLICHDGARVTMKGSG gave an amyloid nucleation score of 1.89.
For EASNCFAIRHFENKFAVETLICHDKKTTVVMGLG, the amyloid nucleation score was “inactive”.
With EASNCFAIRHFENKFAVETLICHDSNGNNRFLAY the amyloid nucleation score was “inactive”.
For EASNCFAIRHFENKFAVETLICHDYCLKSVGRVW, the amyloid nucleation score was “inactive”.
In the case of EASNCFAIRHFENKFAVETLICHEGT, the amyloid nucleation score was “inactive”.
In the case of EASNCFAIRHFENKFAVETLICHEKANL, the amyloid nucleation score was “inactive”.
For EASNCFAIRHFENKFAVETLICHEQMGHGRGTRT, the amyloid nucleation score was “inactive”.
For EASNCFAIRHFENKFAVETLICHEVTS, the amyloid nucleation score was “inactive”.
Work on EASNCFAIRHFENKFAVETLICHF yielded an amyloid nucleation score of 6.58.

Same assay, conditions: random library (experiment): 3
For EASNCFAIRHFENKFAVETLICGYKLTCECVFST, the amyloid nucleation score was “inactive”.
In the case of EASNCFAIRHFENKFAVETLICGYLIVVLTHRID, the amyloid nucleation score was “inactive”.
In the case of EASNCFAIRHFENKFAVETLICGYLWSEAFVRGS, the amyloid nucleation score was “inactive”.
In the case of EASNCFAIRHFENKFAVETLICGYLYRSLECPDS, the amyloid nucleation score was “inactive”.
With EASNCFAIRHFENKFAVETLICGYMSRWDISVCV the amyloid nucleation score was “inactive”.
In the case of EASNCFAIRHFENKFAVETLICGYRD, the amyloid nucleation score was “inactive”.
For EASNCFAIRHFENKFAVETLICGYTLNGLHTGDR, the amyloid nucleation score was “inactive”.
With EASNCFAIRHFENKFAVETLICGYVAWVWRSWRR the amyloid nucleation score was “inactive”.
EASNCFAIRHFENKFAVETLICGYVNIHL showed an amyloid nucleation score of 8.54.
For EASNCFAIRHFENKFAVETLICGYW, the amyloid nucleation score was “inactive”.
In the case of EASNCFAIRHFENKFAVETLICGYYM, the amyloid nucleation score was “inactive”.
EASNCFAIRHFENKFAVETLICHACNAEMWRSLS gave an amyloid nucleation score of 0.0182.
With EASNCFAIRHFENKFAVETLICHADGQSSALAGW the amyloid nucleation score was “inactive”.
With EASNCFAIRHFENKFAVETLICHAHCEDYDITFQ the amyloid nucleation score was 0.
Sequence EASNCFAIRHFENKFAVETLICHAHHSAAGLNWL has an amyloid nucleation score of 2.66.
For EASNCFAIRHFENKFAVETLICHAKCS, the amyloid nucleation score was “inactive”.
With EASNCFAIRHFENKFAVETLICHASQMER the amyloid nucleation score was “inactive”.
In the case of EASNCFAIRHFENKFAVETLICHAVHHSYFVVGR, the amyloid nucleation score was “inactive”.
With EASNCFAIRHFENKFAVETLICHCCYCLSLCARM the amyloid nucleation score was 3.57.
EASNCFAIRHFENKFAVETLICHCHNRRERTCLQ gave an amyloid nucleation score of 3.85.
For EASNCFAIRHFENKFAVETLICHCPCKSRRVNAG, the amyloid nucleation score was 7.99.
In the case of EASNCFAIRHFENKFAVETLICHCTLMNLSYVKV, the amyloid nucleation score was 0.0461.
In the case of EASNCFAIRHFENKFAVETLICHCWKCYVHGTGM, the amyloid nucleation score was “inactive”.
In the case of EASNCFAIRHFENKFAVETLICHDHI, the amyloid nucleation score was 0.702.
With EASNCFAIRHFENKFAVETLICHDMNG the amyloid nucleation score was “inactive”.
In the case of EASNCFAIRHFENKFAVETLICHDNRSVRSVSHM, the amyloid nucleation score was “inactive”.
For EASNCFAIRHFENKFAVETLICHDPSGVSGKGNQ, the amyloid nucleation score was “inactive”.
In the case of EASNCFAIRHFENKFAVETLICHDVADSTRVLGD, the amyloid nucleation score was “inactive”.
EASNCFAIRHFENKFAVETLICHDYVCYALCSTL showed an amyloid nucleation score of 5.58.
With EASNCFAIRHFENKFAVETLICHEATGTLSLQVE the amyloid nucleation score was “inactive”.
For EASNCFAIRHFENKFAVETLICHEKCGWELSS, the amyloid nucleation score was 0.334.
In the case of EASNCFAIRHFENKFAVETLICHERRRYVPGYGR, the amyloid nucleation score was “inactive”.
